This is an account of results in PubChem BioAssay AID1745853 (National Center for Advancing Translational Sciences (NCATS), 2022).

This is one part of the list. Further columns of the screen follow, without active or inactive calls.

Common to all, as to assay: Primary Screen for Target Class Profiling of Small Molecule Inhibitors of Methyltransferases
The target in experiment [1] is Glycine N-methyltransferase (Homo sapiens) (UniProt Q14749). As to conditions: purified enzyme, MTase-Glo SAH luminescence; measured here: GNMT inhibition; at 40 µM; stronger effect = lower value. The gist of the method: (§1)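 Each enzyme was assayed with SAM and its substrate. SAH formation detected by MTase-Glo luminescence; single-point 40 uM screen[…].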
The target in experiment [2] is Guanidinoacetate N-methyltransferase (Homo sapiens) (UniProt Q14353). The conditions noted are these: purified enzyme, MTase-Glo SAH luminescence; measured here: GAMT inhibition; at 40 µM; stronger effect = lower value. An outline of the steps: as §1
For experiment [3], the target named is Histamine N-methyltransferase (Homo sapiens) (UniProt P50135). As to conditions: purified enzyme, MTase-Glo SAH luminescence; measured here: HNMT inhibition; at 40 µM; stronger effect = lower value. The gist of the method: as §1
Experiment [4] has as its target Nicotinamide N-methyltransferase (Homo sapiens) (UniProt P40261). The conditions noted are these: purified enzyme, MTase-Glo SAH luminescence; measured here: NNMT inhibition; at 40 µM; stronger effect = lower value. The gist of the method:
as §1

For experiment [5], the target named is Phenylethanolamine N-methyltransferase (Homo sapiens) (UniProt P11086). The conditions noted are these: purified enzyme, MTase-Glo SAH luminescence; measured here: PNMT inhibition; at 40 µM; stronger effect = lower value. The gist of the method:
as §1
% is set by controls: 0 for no effect and ±100 for the full control effect.

With `Cc1nc(C(C)C)ncc1C(=O)N1CCC2(CCCN(C)C2=O)C1` (stereo not drawn), the activity change, negative = inhibition in experiment [1] was 0.319%; in experiment [2] it was -0.377%; in experiment [3] it was 2.11%; in experiment [4] it was 1.01%; in experiment [5], 0.72%.
For `Cc1cnc(C(=O)N(C)C2CCc3nn(CC4CC4)c(=O)n3CC2)cn1` (stereo not drawn), the activity change, negative = inhibition in experiment [1] is 3.18%; in experiment [2] it was 1.74%; in experiment [3], 0.216%; in experiment [4], 6.29%; in experiment [5], 0.921%.
As to `Cc1ccc(C(=O)Cn2nc3n(C(C)C)c(=O)c4ccc(C(=O)NC5CCCCC5)cc4n3c2=O)cc1`, the activity change, negative = inhibition in experiment [1] stood at 5.55%; in experiment [2], 1.25%; in experiment [3], 8.18%; in experiment [4], 5.27%; in experiment [5], 7.13%.
`CN(CC(=O)N1CCC(Cc2ccccc2)CC1)S(=O)(=O)c1ccc2[nH]c3c(c2c1)CCCC3`: the activity change, negative = inhibition in experiment [1] is -9%; in experiment [2] it was 0.571%; in experiment [3], -4.78%; in experiment [4], -10.4%; in experiment [5], -2.02%.
In the case of `CCCn1c(=O)c2ccc(C(=O)NC(C)C)cc2n2c(=O)n(CC(=O)Nc3cccc(Cl)c3)nc12`, the activity change, negative = inhibition in experiment [1] is 5.21%; in experiment [2] it was 0%; in experiment [3], 3.1%; in experiment [4], 2.94%; in experiment [5] it was 3.98%.
As for `O=C(c1ccc(C2CCCNC2)cc1)N1CCN(c2ccncc2)CC1` (stereo not drawn), the activity change, negative = inhibition in experiment [1] was -3.63%; in experiment [2], -5.62%; in experiment [3] it was -83.9%; in experiment [4] it was -8.23%; in experiment [5], -9.61%.
With `CC1CC(C)CN(S(=O)(=O)c2ccc3c(c2)oc(=O)n3CC(=O)NCc2ccccc2)C1` (stereo not drawn), the activity change, negative = inhibition in experiment [1] was -7.87%; in experiment [2], 3.29%; in experiment [3], 0.546%; in experiment [4] it was 0.156%; in experiment [5], -5.95%.
Regarding `NC(=O)c1ccc(NC(=O)Cn2nc3c(cc2=O)CCCCC3)cc1`, the activity change, negative = inhibition in experiment [1] is -11.7%; in experiment [2], -7.31%; in experiment [3] it was -4.75%; in experiment [4], -13.2%; in experiment [5], -1%.
Take `Cc1nc(Nc2cnn(C3CCNCC3)c2)nc2c1N(C)C(=O)c1cc3ccccc3cc1N2C`: the activity change, negative = inhibition in experiment [1] was -10.5%; in experiment [2], -4.23%; in experiment [3], -43.7%; in experiment [4] it was -31.4%; in experiment [5], -7.14%.
Turning to `CCOC(=O)c1cc2n(n1)CC(C)(C(=O)NCCOC)N(c1ccc(F)cc1)C2=O` (stereo not drawn), the activity change, negative = inhibition in experiment [1] is 8.43%; in experiment [2], 2.04%; in experiment [3], 10.2%; in experiment [4], 8.97%; in experiment [5], 5.76%.
The like results for `O=C(CCn1ccc2cc(S(=O)(=O)N3CCCCC3)ccc21)N1CCCC1` were, in that order, -1.54%, -2.23%, -2.82%, -2.67% and -3.57%.
Consider `Cc1ccccc1CCNC(=O)Cn1ccc2cc(S(=O)(=O)N3CCC(C)CC3)ccc21`, for which the activity change, negative = inhibition was 6.41% in experiment [1]; 1.16% in experiment [2]; 1.47% in experiment [3]; 2% in experiment [4]; -2.26% in experiment [5].
As to `CCOC(=O)c1cc2n(n1)CC(C)(C(=O)NCc1ccc(F)cc1)N(Cc1ccc(SC)cc1)C2=O` (stereo not drawn), the activity change, negative = inhibition in experiment [1] is -0.066%; in experiment [2], 5.18%; in experiment [3], 5.24%; in experiment [4] it was -4.87%; in experiment [5], 0.099%.
`CCOC(=O)C(Cc1c[nH]c2ccccc12)NC(=O)c1ccco1` (stereo not drawn): the activity change, negative = inhibition is -2.14% in experiment [1]; 3.75% in experiment [2]; 4.81% in experiment [3]; -2.31% in experiment [4]; -0.457% in experiment [5].
The like results for `CCOC(=O)C1CCN(C(=O)c2cn3ccnc(-c4ccc(C)cc4)c3n2)CC1` were, in that order, -8.63%, -6.7%, -1.41%, -15.2% and -1.03%.
Take `O=C1NCCCCCN(C(=O)C2CCC2)[C@H]2CCCC[C@@H]12`: the activity change, negative = inhibition is -2.37% in experiment [1]; -2.7% in experiment [2]; 0.712% in experiment [3]; -1.97% in experiment [4]; 11.9% in experiment [5].
In the case of `O=C(Cc1cc2c(cc1Cl)OCCO2)N[C@@H]1COCC[C@@H]1OCC1CC1`, the activity change, negative = inhibition in experiment [1] is -4.39%; in experiment [2] it was -5.12%; in experiment [3] it was -1.68%; in experiment [4] it was -7.35%; in experiment [5] it was 3.03%.
The like results for `COC1C(CO)OC(n2cnc3c(=O)[nH]cnc32)C1O` (stereo not drawn) were, in that order, -2.25%, -0.143%, 11.1%, -13.4% and -13.1%.
For the compound `Cc1cc2c(cc1C(=O)N[C@H](c1ccccn1)C1CC(O)C1)OCCO2` (stereo partly drawn), the activity change, negative = inhibition in experiment [1] was -2.49%; in experiment [2] it was -5.43%; in experiment [3], -5.17%; in experiment [4] it was -5.92%; in experiment [5], -7.23%.
`CCc1cc(S(=O)(=O)O)c2cc(C(C)C)cccc1-2`: the activity change, negative = inhibition in experiment [1] was -10.3%; in experiment [2] it was -6.91%; in experiment [3] it was 6.04%; in experiment [4], -17.4%; in experiment [5] it was -0.173%.
For `CC1CCCCC1NC(=O)C1(C)Cn2c(cc3sccc32)C(=O)N1Cc1ccccc1Cl` (stereo not drawn) the same measures were 2.71%, 1.16%, 7.33%, -3.52% and 0.449%.
Take `NC(=O)CN1CCC(C(=O)N2CCCC(CO)(CC3CC3)C2)CC1` (stereo not drawn): the activity change, negative = inhibition in experiment [1] was -1.7%; in experiment [2], 1.27%; in experiment [3], 1.52%; in experiment [4] it was 0.673%; in experiment [5], -6.85%.
Regarding `C=C1CCC2C(C)(C)CC(O)CC2(C)C1CCC(C)CCOC(=O)CCC(=O)O` (stereo not drawn), the activity change, negative = inhibition in experiment [1] was -10.8%; in experiment [2], 0.514%; in experiment [3] it was 11.5%; in experiment [4], -22.9%; in experiment [5] it was -11.7%.
For the compound `CCCC1c2ccc(C)n2CCN1C(=O)Nc1ccc(C)cc1` (stereo not drawn), the activity change, negative = inhibition in experiment [1] was 1.54%; in experiment [2] it was 0%; in experiment [3], -1.48%; in experiment [4], 1.52%; in experiment [5] it was -0.268%.
As to `Oc1cccc(-c2nc(N3CCOCC3)c3sccc3n2)c1`, the activity change, negative = inhibition in experiment [2] was -7.22%; in experiment [4], -28.2%; in experiment [5], -14%.
As for `CC1(C(=O)NC2CCCC2)Cn2c(cc3ccccc32)C(=O)N1Cc1ccc(F)cc1` (stereo not drawn), the activity change, negative = inhibition in experiment [1] is -5.1%; in experiment [2], 5.03%; in experiment [3], -2.16%; in experiment [4], -6.44%; in experiment [5], -1.39%.
For `CC1(C(=O)O)CCCC2(C)C1CCC13CC(CCC21)C1(CO)OC31` (stereo not drawn), the activity change, negative = inhibition in experiment [1] was -1.43%; in experiment [2], -3.54%; in experiment [3], -47.7%; in experiment [4], -15.8%; in experiment [5], -1.4%.
Take `COc1ccc(OC)c(CN2C(=O)c3ccc(-c4ccco4)n3CC2(C)C(=O)NC2CCCCC2)c1` (stereo not drawn): the activity change, negative = inhibition in experiment [1] is -1.78%; in experiment [2], 0%; in experiment [3], -1.52%; in experiment [4], 2.88%; in experiment [5], 0.057%.
The like results for `COc1ccc2c(c1)c(-n1cccc1)c1n2CC(C)(C(=O)NC2CCCCCC2)N(Cc2ccc(C)cc2)C1=O` (stereo not drawn) were, in that order, -1.96%, 0%, 3.17%, -0.073% and -0.759%.
With `CC(C)(CNC(=O)c1cccc(-c2noc(C(F)(F)F)n2)c1)c1coc(-c2ccccc2)n1`, the activity change, negative = inhibition in experiment [1] is -3.79%; in experiment [2], -5.84%; in experiment [3], 9.99%; in experiment [4], -24.2%; in experiment [5] it was -7.04%.
In the case of `CC(C)OCCCNC(=O)CCc1nnc2n(Cc3ccc(Cl)cc3)c(=O)c3ccccc3n12`, the activity change, negative = inhibition is -2.83% in experiment [1]; 2.25% in experiment [2]; 2.62% in experiment [3]; 2.89% in experiment [4]; -0.805% in experiment [5].
